Experiments:
[1] = target: Radioactively labelled FVIII (125I-FVIII) (human) (UniProt P00451); test: cell-based or functional assay
[2] = target: Fluorescent labelled FVIII (Oregon green-FVIII) (human) (UniProt P00451); test: cell-based or functional assay

IC50 (nM), inhibition of 125I-FVIII binding to U87 MG cells [1] [nM]	IC50 (nM), inhibition of 125I-FVIII internalization in U87 MG cells [1] [nM]	Maximal inhibition (%), 125I-FVIII binding to U87 MG cells [1] [%]	Maximal inhibition (%), 125I-FVIII internalization in U87 MG cells [1] [%]	IC50 (nM), inhibition of uptake of fluorescently labelled FVIII in macrophages [2] [nM]	Maximal inhibition (%), uptake of fluorescently labelled FVIII in macrophages [2] [%]	Substance
1.2	1.3	34.3	32.2			Plasma derived full length VWF, VWF ([…]) (a stretch of the chain, sequence not shown) (other; 125I label)
				15.6	32.6	Plasma derived full length VWF, VWF ([…]) (a stretch of the chain, sequence not shown) (other; Oregon Green fluorescent label)

Reference: patent publication US20160207977A1
